We go through two compounds from patent US4690926A, “Boxazomycin A and B, new antibiotics containing benzoxazole nucleus” (Bristol-Myers Company, priority 1986, dated 1987).

In assay [1] the test system is M. luteus PCI 1001. As to the kind of experiment: Effect of pH on antimicrobial activity (MIC, Table 8). To be noted: Micrococcus luteus. Format: cell-based.
Assay [2] has as its system S. aureus 209P. Described as above. To be noted: Staphylococcus aureus. Format: cell-based.

In brackets after ≈: the same amount, converted by molar mass.

Take `Cc1cc(O)c(C(N)=O)c2nc(-c3nc(CO)ncc3O)oc12` [Boxazomycin A]: the MIC in assay [1] (PCI1001, pH 6) stood at 0.1 µg/mL (≈ 0.316 µM); in assay [1] (PCI1001, pH 7), 0.4 µg/mL (≈ 1.26 µM); in assay [2] (pH 6), 0.4 µg/mL (≈ 1.26 µM); in assay [2] (pH 7) it was 0.8 µg/mL (≈ 2.53 µM).
As to `Cc1ncc(O)c(-c2nc3c(C(N)=O)c(O)cc(C)c3o2)n1` [Boxazomycin B], the MIC is 0.2 µg/mL (≈ 0.666 µM) in assay [1] (PCI1001, pH 6); 0.8 µg/mL (≈ 2.66 µM) in assay [1] (PCI1001, pH 7); 0.2 µg/mL (≈ 0.666 µM) in assay [2] (pH 6); 0.8 µg/mL (≈ 2.66 µM) in assay [2] (pH 7).

By MIC is commonly meant the least concentration at which growth counts as inhibited.
